The source of these data is a collection of fitness landscapes (doi:10.1126/science.1257360).

Sequences and labels used below:
B1: PhoQ; a variant is named by its letters at X, in order, P23837 (parent)
chain: MKKLLRLFFPLSLRVRFLLATAAVVLVLSLAYGMVALIGYSVSFDKTTFRLLRGESNLFYTLAKWENNKLHVELPENIDKQSPTMTLIYDENGQLLWAQRDVPWLMKMIQPDWLKSNGFHEIEADVNDTSLLLSGDHSIQQQLQEVREDDDDAEMTHSVAVNVYPATSRMPKLTIVVVDTIPVELKSSYMVWSWFIYVLSANLLLVIPLLWVAAWWSLRPIEALAKEVRELEEHNRELLNPATTRELTSLVRNLNRLLKSERERYDKYRTTLTDLTHSLKTPLXXLQXXLRSLRSEKMSVSDAEPVMLEQISRISQQIGYYLHRASMRGGTLLSRELHPVAPLLDNLTSALNKVYQRKGVNISLDISPEISFVGEQNDFVEVMGNVLDNACKYCLEFVEISARQTDEHLYIVVEDDGPGIPLSKREVIFDRGQRVDTLRPGQGVGLAVAREITEQYEGKIVAGESMLGGARMEVIFGRQHSAPKDE

Some of the results follow.

Variants of B1 are the subject of this test. Nature of the test: enrichment ratio after two sorts for PhoP signalling (ratio (wild type AVST 3.29)); higher = more functional. Particulars: with PhoP (E. coli).
On to MSPE, for which the enrichment ratio is no more than 0.25.
Regarding PGTP, the enrichment ratio was no more than 0.25.
The figure for QNMM is no more than 0.25; for INQS it is no more than 0.25; for GPTI it is no more than 0.25.
For LNFD, the enrichment ratio was no more than 0.25.
VNCW: the enrichment ratio was no more than 0.25.
For APCA the value was no more than 0.25; for GFQY, no more than 0.25; for WSSF, no more than 0.25.
Turning to GFSM, the enrichment ratio is no more than 0.25.
For DRMG the value was no more than 0.25.
For QQDF the value was no more than 0.25; for KFTC, no more than 0.25; for VRMH, no more than 0.25.
For YHAK the value was no more than 0.25.
In the case of LGVY, the enrichment ratio was no more than 0.25.
The figure for VKVN is no more than 0.25.
The figure for RDTH is no more than 0.25; for HIQL it is no more than 0.25; for QDKT it is no more than 0.25.
Consider TSFP, for which the enrichment ratio is no more than 0.25.
For EVAG the value was no more than 0.25.
The figure for KDPW is no more than 0.25.
As to PGHM, the enrichment ratio is no more than 0.25.
For MFPD the value was no more than 0.25; for VDCD, no more than 0.25; for ISML, 10.5.
The figure for TSCH is 15.8.
The figure for EDVL is no more than 0.25; for SIYG it is no more than 0.25; for HYPN it is no more than 0.25.
On to AKPS, for which the enrichment ratio is no more than 0.25.
RYYD: the enrichment ratio was no more than 0.25.
For LDFN, the enrichment ratio was no more than 0.25.
The figure for KDTI is no more than 0.25.
For ELAF the value was no more than 0.25; for KVPN, no more than 0.25.
For PLHF the value was no more than 0.25; for QIND, no more than 0.25.
Take GRYC: the enrichment ratio was no more than 0.25.
For RGVR, the enrichment ratio was no more than 0.25.
For PMVV the value was no more than 0.25.
The figure for SFPC is no more than 0.25; for MHDC it is no more than 0.25; for SQVM it is 19.6.
For PNQN the value was no more than 0.25; for TMQA, 4.88.
Turning to WRIV, the enrichment ratio was no more than 0.25.
For YWRF, the enrichment ratio is no more than 0.25.
For YPGM the value was no more than 0.25.
In the case of FGSY, the enrichment ratio was no more than 0.25.
The figure for DFKM is no more than 0.25; for YQRS it is no more than 0.25; for HPHF it is no more than 0.25.
For the variant AEQH, the enrichment ratio is no more than 0.25.
The figure for PMMC is no more than 0.25.
The figure for SGKA is no more than 0.25.
For SMPS the value was no more than 0.25; for YSIC, no more than 0.25; for RLHF, no more than 0.25.
For FFYW, the enrichment ratio was no more than 0.25.
For KLQS the value was no more than 0.25; for VTVE, no more than 0.25.
For TSMF the value was 7.18; for AQYN, no more than 0.25.
As for YIMI, the enrichment ratio stood at 0.259.
In the case of GRYF, the enrichment ratio is no more than 0.25.
The figure for HILR is no more than 0.25.
Regarding TAVC, the enrichment ratio was found to be 1.35.
The figure for GPKH is no more than 0.25.
For INTK the value was no more than 0.25; for PHAI, no more than 0.25; for SNKY, no more than 0.25.
With FWSH, the enrichment ratio was no more than 0.25.
For the variant SVWN, the enrichment ratio is no more than 0.25.
For GPCH the value was no more than 0.25; for EVEA, no more than 0.25.
The figure for DAQT is no more than 0.25; for VITL it is 0.485.
The figure for DWNS is no more than 0.25; for LTDG it is no more than 0.25; for WLMH it is no more than 0.25.
In the case of LDMG, the enrichment ratio is no more than 0.25.
For YQQE the value was no more than 0.25; for EEGC, no more than 0.25.
For FCWN the value was no more than 0.25; for LKST, no more than 0.25; for VLVS, no more than 0.25.
The figure for YPRW is no more than 0.25; for LCVE it is no more than 0.25.
Regarding LDIS, the enrichment ratio is no more than 0.25.
For YLLM the value was 0.305; for PEDF, no more than 0.25.
Take LQTP: the enrichment ratio is no more than 0.25.
For EDYL the value was no more than 0.25.
Regarding FETQ, the enrichment ratio is no more than 0.25.
The figure for EQSE is no more than 0.25; for VQPR it is no more than 0.25.
In the case of NQKA, the enrichment ratio was no more than 0.25.
For YWTG the value was no more than 0.25.
The figure for QHWD is no more than 0.25; for VWNL it is no more than 0.25.
For the variant KKRG, the enrichment ratio is no more than 0.25.
The figure for IVGS is no more than 0.25; for QGMY it is no more than 0.25.
IHNW: the enrichment ratio is no more than 0.25.
Consider FKNC, for which the enrichment ratio was no more than 0.25.
For MSAW the value was 0.888.
For LHNN the value was no more than 0.25; for NQHL, no more than 0.25; for WDEE, no more than 0.25.
Consider YYRS, for which the enrichment ratio is no more than 0.25.
With QRDP, the enrichment ratio was no more than 0.25.
The figure for MERQ is no more than 0.25; for WAMC it is no more than 0.25.
For LTMQ the value was no more than 0.25; for RGIF, no more than 0.25; for RQFE, no more than 0.25.
The figure for AGIQ is 3.29.
For the variant KLNI, the enrichment ratio was no more than 0.25.
The figure for AFFQ is no more than 0.25; for RDHE it is no more than 0.25; for PDKR it is no more than 0.25.
The figure for WNWP is no more than 0.25; for VCTI it is no more than 0.25.
For PSNY the value was no more than 0.25.
On to WSPQ, for which the enrichment ratio is no more than 0.25.
The figure for PHYV is no more than 0.25.
For DGYS, the enrichment ratio was no more than 0.25.
For WQVT the value was no more than 0.25; for MLCA, no more than 0.25; for CALL, 1.78.
For AQIN the value was no more than 0.25; for AMCN, 3.93; for RHRY, no more than 0.25.
For IFDK the value was no more than 0.25.
Consider VLTG, for which the enrichment ratio was no more than 0.25.
The figure for WENE is no more than 0.25; for SGDS it is no more than 0.25.
As to IQRS, the enrichment ratio was no more than 0.25.
The figure for HIFR is no more than 0.25.
With MQWH, the enrichment ratio is no more than 0.25.
For GLFS the value was no more than 0.25.
For FRLT the value was no more than 0.25; for VMCR, no more than 0.25.
The figure for QYNQ is no more than 0.25; for RNYL it is no more than 0.25; for LGKW it is no more than 0.25.
In the case of FYQW, the enrichment ratio is no more than 0.25.
The figure for PHAL is no more than 0.25; for QRSP it is no more than 0.25; for EFIA it is no more than 0.25.
